# Measurements as given in PubChem BioAssay AID445 (National Center for Advancing Translational Sciences (NCATS), 2006).
# Hit rate of the full screen: of about 110,000 compounds, about 40 (0.04%) were called active. The shares of active, inactive and inconclusive entries below differ from those in the screen. Calls come from the whole dose curve; as a rule, active = well fitted curve in the direction sought with a large enough effect in the signal ratio (not every such curve was filed as active); inconclusive = small, poorly fitted or top-dose-only effect, or a change in a side signal; inactive = flat fitted curve, though single readings scatter; the % refers to the signal ratio. Potencies beside an inconclusive call are fits to weak or partial responses and may not hold up.
# Experiment: IkB Signaling;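 for IkBa stabilization activation: 0% = basal untreated cells and 100% = reference inhibitor full response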
# Details: ABC-DLBCL IkBa-CBG/CBR dual luciferase ratio (green luciferase fused to IkBa over red control in OCI-Ly3 lymphoma cells), 4 h; IkBa stabilization activation: at 57.1 µM (top of the series), scaled: untreated 0%, proteasome inhibitor 100% unless noted
# In short: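 In this assay, an IκBα–CBG68 fusion accumulates when IKK-driven degradation is blocked; native CBR normalizes for cell number. OCI-Ly3 cells were treated 4 h with compound and doxycycline, then green and red light read after Chroma-Glo addition.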
# Potency is the fitted concentration of half-maximal effect.
Compound,Potency,IkBa stabilization activation
O=C(CCn1c(=O)oc2ccccc21)Nc1ccccc1,"inconclusive: 3.16 µM [signal inhibitor, full curve]",
N#Cc1c(NC(=O)c2ccncc2)sc2c1CCC2,,inactive: -1.08%
Cc1ccc(NC(=O)Cn2nnnc2-c2ccccc2N)cc1,,inconclusive: 1.33% [signal inhibitor]
COC(=O)c1cccc(NC(=O)CSc2nnc(COc3ccccc3)n2C)c1,,inactive: 1.02%
O=C(C1CCCN(S(=O)(=O)c2cccs2)C1)N1CCN(c2cccc(Cl)c2)CC1 (stereo not given),,inconclusive: 13.3% [signal inhibitor]
Cn1c(=O)c2nc(SCC(=O)Nc3cc(Cl)ccc3Cl)n(C)c2n(C)c1=O,,inconclusive: -0.188% [signal inhibitor]
O=c1[nH]c2ccccc2c2ccccc12,,inactive: -8.78%
COc1cccc(CNC(=O)CSc2ccc(-c3sc(-c4ccccc4)nc3C)nn2)c1,,inconclusive: -1.47% [signal inhibitor]
CCCc1cc(COC)c(C#N)c(=O)[nH]1,,"inactive: -0.91% [at 11.4 µM, scaled: untreated 0%, proteasome inhibitor 100%]"
COc1ccc(Cn2c(C3CC3)nc3ccc(NC(C)=O)cc3c2=O)cc1,,inactive: 2.47%
CCOc1ccc(OCC)c(NC(=O)C2CCCN(S(=O)(=O)c3ccc4c(c3)oc(=O)n4C)C2)c1 (stereo not given),,inconclusive: 0.19% [signal inhibitor]
CCOc1nc2ccccc2nc1NS(=O)(=O)c1ccccc1,"inconclusive: 20 µM [signal inhibitor, partial curve]",
CC(=O)Nc1ccc(Nc2ncnc3c2c(-c2ccccc2)cn3-c2ccccc2)cc1,,inconclusive: 1.53% [signal inhibitor]
O=C(Nc1ccc(F)c(Cl)c1)N1CCN(C(=O)c2nsc3ccccc23)CC1,,inactive: -1.12%
Cc1cc(C)cc(-n2c(SCC(=O)N3CCc4ccccc43)nc3c([nH]c4ccccc43)c2=O)c1,,inactive: -1.72%
CC1Cc2ccccc2N1C(=O)c1cc2c(=O)n3ccccc3nc2n1C (stereo not given),,inactive: -1.15%
Cc1ccc(OC(C)c2nnc(N)s2)cc1Cl (stereo not given),,inconclusive: 3.19% [signal inhibitor]
CCOc1ccc2nc(N3CCN(C(=O)CS(=O)(=O)c4ccc(F)cc4)CC3)sc2c1,,inconclusive: 0.53% [signal inhibitor]
Cc1ccc(Cl)c2sc(N3CCN(C(=O)C4CC4)CC3)nc12,,inconclusive: -0.416% [signal inhibitor]
CC1=C/C(=C\c2ccc3c(c2)OCO3)C(=O)S1,"inconclusive: 31.6 µM [rising, partial curve]",
